Source: PubChem BioAssay AID1347417 (National Center for Advancing Translational Sciences (NCATS), 2020)
The whole screen tested about 120,000 compounds, of which about 5,300 (4.4%) were called active. The shares of active, inactive and inconclusive entries below differ from those in the screen. Calls follow the shape of the dose curve; as a rule, active = well fitted inhibition curve with a large enough effect; inconclusive = small, poorly fitted or top-dose-only effect; inactive = no such curve, though single readings can be large or run the other way. Potencies of inconclusive entries are doubtful fits and often do not repeat.

Experiment: qHTS Primary assay for Inhibitors of Plasmodium falciparum Dd2 growth in vitro; also: nearly all actives have a fitted effect of over 65% in size
Details: P. falciparum Dd2 growth, SYBR Green, 72 h; series mostly up to 28.9 µM
Summary of the method: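 Infected erythrocytes (Dd2, 0.3% parasitemia, 2.5% hematocrit final) are added to compound in RPMI-1640/Albumax II medium, grown 72 h at 37C in low oxygen, then lysed with saponin/Triton-X containing SYBR Green and read by fluorescence.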
Potency is read from the fitted curve at half-maximal effect; tags tell the direction and shape of the fitted curve.

SMILES	Potency
CCCN1C(=O)CN(C2CCCCCC2)C(=O)C1c1ccc(OCC)c(OC)c1 (stereo not given)	inconclusive: 20 µM [inhibitor, single point]
CC1=C[C@@H](CO)[C@H](C(C)C)C[C@H]1Cc1nnc(-c2ccc(N(C)C)cc2)o1	active: 2 µM
CCCCNc1cc(NC2CCCCC2)c2c3c(onc13)-c1ccccc1C2=O	inconclusive: 8.91 µM [inhibitor, partial curve]
Cc1noc2c(-c3ccsc3)cc(-c3cccnc3)nc12	inconclusive: 0.316 µM [inhibitor, full curve, poor fit]
Cc1nn(Cc2ccccc2)c(C)c1[C@@H]1C=C[C@@H](NC(=O)Nc2ccccc2)C1	inconclusive: 11.2 µM [inhibitor, single point]
CC(=O)N1CCC(N2C[C@@H](F)[C@@H](OCc3nc4ccccc4o3)C2)CC1	inactive
COc1ccc(Cl)cc1NC(=O)CN1c2ccccc2S(=O)(=O)c2ccccc21	inconclusive: 17.8 µM [inhibitor, single point]
O=C(CSC1=Nc2ccccc2N=C(c2ccc(F)cc2)C1)Nc1cc(F)ccc1F	inconclusive: 11.2 µM [inhibitor, single point]
CC(C)CNc1ccc2c(n1)C(C)(C(=O)NC1CCC(O)CC1)CN(Cc1ccccc1)C2 (stereo not given)	inconclusive: 10 µM [inhibitor, partial curve, poor fit]
CCc1ccc(CNC(=O)CN2C(=O)NC3(CCS(=O)(=O)CC3)C2=O)cc1	inconclusive: 1 µM [inhibitor, partial curve, poor fit]
CCc1noc(-c2cccn3c(CNC(=O)Cc4cccc(OC)c4)nnc23)n1	inconclusive: 3.16 µM [inhibitor, full curve, poor fit]
c1ccc(CN2CCOC[C@H]3CCNC[C@H]32)cc1	inconclusive: 12.6 µM [inhibitor, partial curve, poor fit]
COc1cccc(NS(=O)(=O)c2ccc3[nH]cc(C(=O)NC4CCCCC4)c(=O)c3c2)c1	inconclusive: 7.94 µM [inhibitor, partial curve, poor fit]
Cc1cn2nc(C(=O)N3CCC(C(=O)NCCc4ccccc4)CC3)cc2c(=O)[nH]1	inconclusive: 1.26 µM [inhibitor, full curve, poor fit]
CCc1noc(-c2cn(C3CCN(C(=O)c4cccc(OC)c4)C3)nn2)n1 (stereo not given)	inconclusive: 3.98 µM [inhibitor, single point]
CCn1cc2nc(SCc3cccc(OC)c3)n(Cc3ccc(Cl)cc3)c(=O)c2n1	inconclusive: 10 µM [inhibitor, single point]
CC(=O)N1Cc2ccccc2CC2(CCCN(Cc3ccccc3)C2)C1 (stereo not given)	inconclusive: 11.2 µM [inhibitor, partial curve, poor fit]
CCc1cccc(NC(=O)c2nnn3cc(C)[nH]c(=O)c23)c1	inconclusive: 0.501 µM [inhibitor, full curve, poor fit]
CN(Cc1ccc(-c2ccccc2)cc1)C(=O)c1ccccc1Cl	inactive
COC(=O)[C@@H]1Cc2ncn(Cc3ccc(Cl)cc3)c2CN1S(=O)(=O)c1ccc(OC)cc1	inconclusive: 10 µM [inhibitor, partial curve, poor fit]
O=C1[C@@H]2C[C@@H](O)CN2C2(CN(Cc3c[nH]c4ccccc34)C2)C(=O)N1Cc1cccc(Cl)c1	inconclusive: 12.6 µM [inhibitor, single point]
COCCn1c(C)cnc1CC1CCN(C(=O)NCCc2ccccc2)C1 (stereo not given)	inactive

SMILES	Potency
COCC(=O)N1CC(C(=O)NCc2cccc(F)c2)CC(c2ccc(F)c(C)c2)C1 (stereo not given)	inconclusive: 3.55 µM [inhibitor, full curve]
COc1cc(C(=O)Nc2ccc(-c3cc(C(F)(F)F)nn3-c3ccccc3)cc2)cc(OC)c1OC	inactive
O=C1NCc2ccccc2CC12CCCN(Cc1ccc(F)c(Cl)c1)C2 (stereo not given)	inconclusive: 10 µM [inhibitor, single point]
Cc1nnc([C@@H]2CC(F)(F)CN2C(=O)c2occc2C)o1	inactive
Cc1ccc(C(=O)N2CCN(c3ccccc3F)CC2)cc1NC(=O)c1nsc2ccccc12	inconclusive: 17.8 µM [inhibitor, single point]
O=C(NC(C(=O)N1CCCCC1)C1CCN(C(=O)c2ccc(Cl)cc2)CC1)c1ccccc1 (stereo not given)	active: 5.01 µM
O=C1NCc2ccccc2CC12CCCN2Cc1cnc2ccccc2c1 (stereo not given)	active: 8.91 µM
COc1cc(NC(=O)O[C@@H]2CC[C@]3(C)C(CC[C@@H](O)[C@H]3CC(=O)N3CCCC3)[C@]2(C)CO)cc(OC)c1OC (stereo not given in full)	inactive
CN(C)CCN(C)Cc1cn(Cc2ccccc2)nc1-c1ccc2c(c1)OCO2	active: 10 µM
Cc1ccc(CN(C)Cc2cccc(C(F)(F)F)c2)cc1	inactive
Cc1cccc(CN2CCCCCCN(C)C(=O)[C@@H]3CCC[C@@H]32)c1	active: 2.51 µM
CCCCN(CC)CCCNC(=O)c1cn(C)c2ccc(S(=O)(=O)N(C)C3CCCCC3)cc2c1=O	inconclusive: 17.8 µM [inhibitor, single point]
COc1cccc(-c2nn(-c3ccccc3)c(OC(C)=O)c2-c2ccc(NC(=O)C3CCCC3)cc2)c1	inconclusive: 3.16 µM [inhibitor, single point]
CCn1ncnc1C(C)NC(=O)c1coc(COc2ccc3c(c2)OCO3)n1 (stereo not given)	inactive
O=C(c1cccc(F)c1)N1CCCC(CN2CCOCC2)CC1 (stereo not given)	inconclusive: 17.8 µM [inhibitor, single point]
COC(=O)C1=C(C)NC(=O)C1(NC(=O)c1ccccc1C)C(F)(F)F (stereo not given)	inactive
COc1cc(CNCCc2ccc(Cl)cc2)ccc1OCC(O)CN1CCOCC1 (stereo not given)	active: 11.2 µM
COc1cc2c(cc1Oc1cccc(N(C)C)c1)NC(=O)C21CCN(Cc2cccc(O)c2)CC1	inconclusive: 5.01 µM [inhibitor, partial curve, poor fit]
COc1ccc(CN2C(=O)C(NC(=O)c3ccccc3OC)(C(F)(F)F)N=C2c2ccccc2)cc1 (stereo not given)	inactive
C=CCN1CC(C(=O)N2CCN(Cc3ccccc3C#N)CC2)CC1=O (stereo not given)	inactive
COc1cccc(CNC(=O)C2CCN(c3cc(C(F)(F)F)nc(C)n3)CC2)c1	inconclusive: 10 µM [inhibitor, single point]
CCN1c2cc(C(=O)NCc3ccc(C(C)C)cc3)ccc2C(=O)N2CCCCCC21 (stereo not given)	active: 11.2 µM

SMILES	Potency
CCc1cccc(NC(=O)N2CCCC(c3noc(COc4ccccc4F)n3)C2)c1 (stereo not given)	inconclusive: 0.282 µM [inhibitor, full curve, poor fit]
CC(=O)N1CCc2c(sc3c2c(=O)n(Cc2ccccc2)c(=O)n3CC(=O)Nc2ccc(C)c(F)c2)C1	inconclusive: 11.2 µM [inhibitor, single point]
COc1ccccc1NC(=O)c1c(NC(=O)c2ccccc2Cl)sc2c1CCC2	inactive
CN1C(=O)CCC2(C(=O)O)CCCC=C12 (stereo not given)	inconclusive: 1.78 µM [inhibitor, full curve]
Cn1nc(C2CCCN(C(=O)Nc3ccc4c(c3)OCCO4)C2)n(C2CCCC2)c1=O (stereo not given)	inconclusive: 7.94 µM [inhibitor, partial curve]
Cc1cc(C)cc(C(=O)N2CCC(c3n[nH]c(=O)n3Cc3ccc(F)cc3)CC2)c1	inconclusive: 5.62 µM [inhibitor, partial curve, poor fit]
O=C(O)C1=NOC2CN(Cc3nc4ccccc4s3)CC12 (stereo not given)	inactive
CN1c2cc(C(N)=O)ccc2C(=O)N2CCCCC21 (stereo not given)	inactive
CN(C)c1ncc2c(n1)C(C)(C(=O)Nc1ccc(Cl)cc1)CCC2 (stereo not given)	inconclusive: 12.6 µM [inhibitor, single point]
COc1ccccc1CC(=O)N[C@@H]1CN(C)C[C@H]1CN(C)C	inactive
NC(=O)c1cccc(CN2CCC3(CC2)Cc2ccccc2N(C(=O)c2ccc(Cl)cc2)C3)c1	active: 11.2 µM
Cc1cccc(OCC(=O)Nc2ccc3nc(Nc4cccc(Cl)c4)cc(C)c3c2)c1	inconclusive: 0.794 µM [inhibitor, single point]
O=C(CCCc1ccccc1)N1CCN(C(=O)c2nnn3c2COC(c2ccccc2)C3)CC1 (stereo not given)	inconclusive: 3.98 µM [inhibitor, single point]
COc1ccc(Cl)cc1NC(=O)c1c(NCc2ccc(C)o2)sc2c1CCCC2	inconclusive: 10 µM [inhibitor, single point]
COCCNC(=O)c1c(C)oc2c1CN(Cc1cccc(F)c1)CC2	active: 5.01 µM
Cc1ccc(CN(Cc2ccco2)C(=O)c2oc3c(C)c(C)ccc3c2C)cc1	inconclusive: 17.8 µM [inhibitor, single point]
CCC(C)NC(=O)CSc1nc2cc3c(cc2c(=O)n1CCCC(=O)NCc1ccc2c(c1)OCO2)OCO3 (stereo not given)	inconclusive: 0.0708 µM [inhibitor, full curve, poor fit]
Cc1cc(=O)n(CC(=O)NCc2ccccc2Br)c(N(C)Cc2ccccc2)n1	inconclusive: 0.0708 µM [inhibitor, full curve, poor fit]
COc1ccc(-n2nc(C3CCCN(C(=O)Cc4cccc(Cl)c4)C3)[nH]c2=O)cc1 (stereo not given)	inactive
COCCCNC(=O)C(NC(=O)c1ccc(C)cc1)C1CCN(C(=O)c2cccs2)CC1 (stereo not given)	inconclusive: 8.91 µM [inhibitor, partial curve, poor fit]
NC(=O)c1cccc(-c2ccc3c(n2)CN(Cc2ccc(F)cc2)C(=O)CO3)c1	inconclusive: 14.1 µM [inhibitor, single point]
